Reference: patent publication US20260055180A1

Experiments:
hFOLR1 (human) [1] = target: hFOLR1 (human) (UniProt P15328); assay: ELISA
hFOLR1 (human) [2] = target: hFOLR1 (human) (UniProt P15328); assay: BLI (Octet), captured on AHC sensor, antigen in solution

UniProt P15328, sequence (P15328 25-234 limits assumed): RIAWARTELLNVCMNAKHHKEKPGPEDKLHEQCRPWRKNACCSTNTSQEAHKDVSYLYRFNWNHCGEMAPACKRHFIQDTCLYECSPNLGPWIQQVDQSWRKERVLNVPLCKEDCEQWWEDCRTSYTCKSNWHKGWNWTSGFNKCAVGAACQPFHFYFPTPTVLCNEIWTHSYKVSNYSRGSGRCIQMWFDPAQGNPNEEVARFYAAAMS

B1: Anti-FOLR1x4 (GGS)3 (Fc fusion, part only; not given: hinge or second linker, not shown: small tags and cut ends)
chain, part: QVQLVESGGGLVQPGGSLRLSCAASGFTVSNSVMAWYRQTPGNEREFVAIINSIGITNYADSVKGRFTISRDNSKNTLYLQMNSLRAEDTAVYVCNRNFDRIYWGQGTLVTVSSGGSGGSGGSQVQLVESGGGLVQPGGSLRLSCAASGFTVSNSVMAWYRQTPGNEREFVAIINSIGITNYADSVKGRFTISRDNSKNTLYLQMNSLRAEDTAVYVCNRNFDRIYWGQGTLVTVSS[left out - human IgG1 Fc]
EC50 (hFOLR1 (human) [1]): 0.11 nM
Kd (hFOLR1 (human) [2]): 2.52 nM
koff (hFOLR1 (human) [2]): 0.00087 s⁻¹
kon (hFOLR1 (human) [2]): 345000 M⁻¹ s⁻¹

B2: Anti-FOLR1x2; Anti-DLL3x2; (GGS)3 (bispecific antibody, part only; not given: hinge or second linker, not shown: small tags and cut ends)
chain, part: QVQLVESGGGLVQPGGSLRLSCAASGFTVSNSVMAWYRQTPGNEREFVAIINSIGITNYADSVKGRFTISRDNSKNTLYLQMNSLRAEDTAVYVCNRNFDRIYWGQGTLVTVSSGGSGGSGGSEVQLVESGGGEVQPGGSLRLSCAASGSIFSINAMGWYRQAPGKQRELVAGFTGDTNTIYAESVKGRFTISRDNAKNTVYLQMSSLRAEDTAVYYCAADVQLFSRDYEFYWGQGTLVTVK[left out - human IgG1 Fc]
EC50 (hFOLR1 (human) [1]): 0.14 nM
Kd (hFOLR1 (human) [2]): 2.68 nM
koff (hFOLR1 (human) [2]): 0.00102 s⁻¹
kon (hFOLR1 (human) [2]): 381000 M⁻¹ s⁻¹
